The values below come from PubChem BioAssay AID1745853 (National Center for Advancing Translational Sciences (NCATS), 2022).

Molecules are shown by their SMILES. “And” between values parts separate entries of the source, which are not always exact repeats. Identical values can stand only once. The list shows a part of the results. These are further read-outs of the screen, such as a control signal, another cell line or another target. No call is given for them.

What all share (test): Primary Screen for Target Class Profiling of Small Molecule Inhibitors of Methyltransferases
Test [1] has as its target Glycine N-methyltransferase (Homo sapiens) (UniProt Q14749). As to conditions: purified enzyme, MTase-Glo SAH luminescence; measured here: GNMT inhibition; at 40 µM; stronger effect = lower value. In outline:
(§1)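 Each enzyme was reacted with SAM and its substrate, with compounds tested once at 40 uM; SAH formed was read by MTase-Glo luminescence.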

In test [2] the target is Guanidinoacetate N-methyltransferase (Homo sapiens) (UniProt Q14353). The conditions noted are these: purified enzyme, MTase-Glo SAH luminescence; measured here: GAMT inhibition; at 40 µM; stronger effect = lower value. In a few lines: as §1
Test [3] concerns the target Histamine N-methyltransferase (Homo sapiens) (UniProt P50135). As to conditions: purified enzyme, MTase-Glo SAH luminescence; measured here: HNMT inhibition; at 40 µM; stronger effect = lower value. In a few lines: as §1
The target in test [4] is Nicotinamide N-methyltransferase (Homo sapiens) (UniProt P40261). As to conditions: purified enzyme, MTase-Glo SAH luminescence; measured here: NNMT inhibition; at 40 µM; stronger effect = lower value. In outline:
as §1

For test [5], the target named is Phenylethanolamine N-methyltransferase (Homo sapiens) (UniProt P11086). The conditions noted are these: purified enzyme, MTase-Glo SAH luminescence; measured here: PNMT inhibition; at 40 µM; stronger effect = lower value. In a few lines:
as §1
% is set by controls: 0 for no effect and ±100 for the full control effect.

On to `Nc1ncnc2c1C(=O)N(c1ccc(C3CCC(CC(=O)O)CC3)cc1)CCO2` (stereo not given), for which the activity change, negative = inhibition is -5.92% in test [1]; -2.07% in test [2]; 4.97% in test [3]; -12.3% in test [4]; 1.21% in test [5].

For the molecule `C=C[C@H]1[C@H](O[C@@H]2O[C@H](CO)[C@@H](O)[C@H](O)[C@H]2O)OC=C(C(=O)OC)[C@H]1CC=O`, the activity change, negative = inhibition in test [1] is 0.01%; in test [2], 8.76%; in test [3] it was 6.94%; in test [4], -4.39%; in test [5] it was 5.4%.

For the molecule `O=C(CSc1nnc2n(CCc3ccccc3)c(=O)c3ccccc3n12)Nc1ccc(Cl)cc1`, the activity change, negative = inhibition was 3.11% in test [1]; 0% in test [2]; 4.48% in test [3]; 0.352% in test [4]; 2.15% in test [5].

Consider `COc1ccc(OC)c2c1cc1n2CC(C)(C(=O)NC2CCCCC2)N(CCc2ccccc2)C1=O` (stereo not given), for which the activity change, negative = inhibition in test [1] is -12.8%; in test [2], -3.31%; in test [3], -5.97%; in test [4], -4.86%; in test [5], -7.66%.

With `COCCCN1C(=O)c2cc3c(OC)ccc(OC)c3n2CC1(C)C(=O)NC1CCCCC1` (stereo not given), the activity change, negative = inhibition is -16.8% in test [1]; -4.97% in test [2]; -1.06% in test [3]; 0.721% in test [4]; -51.8% in test [5].

Take `Clc1cccc(COc2cncc(N3CCNCC3)n2)c1`: the activity change, negative = inhibition is -1.13% in test [1]; 3.71% in test [2]; -1.14% in test [3]; -25% in test [4]; 0.46% in test [5].

As for `CCOC(=O)c1cc2n(n1)CC(C)(C(=O)NCc1ccccc1)N(c1cccc(Cl)c1C)C2=O` (stereo not given), the activity change, negative = inhibition was -2.68% in test [1]; 1.17% in test [2]; 0.135% in test [3]; -5.09% in test [4]; -2.61% in test [5].

`O=S(=O)(c1ccc(Cl)cc1)c1ccc(N2CCN(c3ccccn3)CC2)nn1`: the activity change, negative = inhibition in test [1] is -4.33%; in test [2], 0%; in test [3], 10%; in test [4] it was 4.97%; in test [5], 6.82%.

For `O=C(Nc1ccc(F)cc1)c1cc(-c2ccc[nH]2)n[nH]1`, the activity change, negative = inhibition in test [1] was -22.8%; in test [2] it was -10.6%; in test [3], -9.62%; in test [4] it was -8.36%; in test [5], -14.7%.

Take `CN1C(=O)c2cc(C(=O)NC3CCCCC3)nn2CC1(C)C(=O)NC1CCCC1` (stereo not given): the activity change, negative = inhibition was 1.75% in test [1]; 2.62% in test [2]; -2.54% in test [3]; 3.04% in test [4]; -2.67% in test [5].

Take `CCOC(=O)c1cc2n(n1)CC(C)(C(=O)NC1CCCCCC1)N(c1ccc(Cl)cc1)C2=O` (stereo not given): the activity change, negative = inhibition in test [1] was 3.4%; in test [2] it was 5.45%; in test [3], -7.96%; in test [4] it was 1.66%; in test [5] it was 4.01%.

With `Cc1ccc(NS(=O)(=O)c2ccc3[nH]c4c(c3c2)CCCC4)cc1C`, the activity change, negative = inhibition is -1.27% in test [1]; 4.62% in test [2]; -1.02% in test [3]; -5.65% in test [4]; 1.89% in test [5].

Regarding `O=C(CCCCCCNC(=O)c1cnc(N(c2ccccc2)c2ccccc2)nc1)NO`, the activity change, negative = inhibition was -9.45% and -7.77% in test [1]; -12% in test [2]; -7.5% and 2.31% in test [3]; -21.6% and 1.86% in test [4]; -17.7% and 24.6% in test [5].

As to `CCn1c(=O)n(CC(=O)NCc2ccc3c(c2)OCO3)c(=O)c2cnc(-c3ccc(Cl)cc3)nc21`, the activity change, negative = inhibition in test [1] is 3.39%; in test [2], 1.64%; in test [3], 1.28%; in test [4] it was -1.19%; in test [5], -0.823%.

As to `CCN(C)C(=O)CN1C[C@@H]2C[C@H]1C(=O)N2c1cc(-c2ccccc2)ccc1OC`, the activity change, negative = inhibition in test [1] was -3.06%; in test [2], 0.541%; in test [3] it was 1.82%; in test [4], -3.58%; in test [5], -0.277%.

As to `COC(=O)C1(C)CCCC2(C)c3ccc(C(C)C)cc3C(O)C(O)C12` (stereo not given), the activity change, negative = inhibition was -2.66% in test [1]; 6.79% in test [2]; 9.05% in test [3]; -8.55% in test [4]; -1.64% in test [5].

As for `COc1cccc(CNC(=O)Nc2nc(-c3ccncc3)cs2)c1`, the activity change, negative = inhibition in test [1] was -25.2%; in test [2], -9.13%; in test [3] it was -12.1%; in test [4], -40.2%; in test [5], -12.3%.

Consider `COC(=O)[C@H]1CN(C(=O)NC(C)C)CCN1S(C)(=O)=O`, for which the activity change, negative = inhibition is -6.82% in test [1]; -13.1% in test [2]; -3.02% in test [3]; -8.13% in test [4]; -4.89% in test [5].

Turning to `CN(Cc1ccccc1)C1CCOC2(CCN(C(=O)CCc3nc4ccccc4[nH]3)CC2)C1` (stereo not given), the activity change, negative = inhibition is -8.41% in test [1]; -1.03% in test [2]; -8.3% in test [3]; -3.45% in test [4]; 2.98% in test [5].

For the molecule `CC1CCC(NC(=O)C2(c3ccccc3)Cn3c(cc4sccc43)C(=O)N2Cc2ccccc2)CC1` (stereo not given), the activity change, negative = inhibition in test [1] is 6.15%; in test [2] it was 3.74%; in test [3] it was 7.23%; in test [4] it was 0.02%; in test [5] it was -0.497%.

`CC(=O)O[C@@H]1C(O)C[C@@]2(C)C(CC[C@@H](C)C23Cc2c(O)cc4c(c2O3)CNC4=O)C1(C)C` (stereo not given in full): the activity change, negative = inhibition was -0.086% in test [1]; -14.5% in test [2]; -2.05% in test [3]; -27.5% in test [4]; -5.48% in test [5].

With `Cc1nnc(-c2cc(-c3cccc(O)c3)ccn2)n1CCc1ccccc1`, the activity change, negative = inhibition in test [1] was -3.49%; in test [2] it was -4.49%; in test [3], -17.7%; in test [4], -4.91%; in test [5], -2.61%.

Take `CCCn1c(=O)c2ccccc2n2c(=O)n(CC(=O)N3CCN(c4ccccc4F)CC3)nc12`: the activity change, negative = inhibition in test [1] was -4.48%; in test [2] it was 4.22%; in test [3] it was 1.23%; in test [4], -6.28%; in test [5] it was 0.026%.

For `Cc1ccc(Cl)cc1NC(=O)N1CCn2cccc2C1C` (stereo not given), the activity change, negative = inhibition in test [1] was -0.054%; in test [2], 0%; in test [3], 7.03%; in test [4], -8.17%; in test [5], 1.64%.

As to `CC(C)n1c(=O)c2ccc(C(=O)NC3CCCC3)cc2n2c(=O)n(Cc3ccc(Cl)cc3)nc12`, the activity change, negative = inhibition in test [1] was -8.26%; in test [2], -1.15%; in test [3] it was -1.23%; in test [4], -2.69%; in test [5], -2.64%.

With `O=C(NCc1ccccc1)c1cnc2n1CCN(Cc1c[nH]c3ccccc13)CC2`, the activity change, negative = inhibition in test [1] is -17.6%; in test [2], -5.11%; in test [3], -15.9%; in test [4] it was -7.16%; in test [5], -42%.

With `COC(=O)c1cc2n(n1)CC(C)(C(=O)NC1CCC(C)CC1)N(Cc1cccc(C)c1)C2=O` (stereo not given), the activity change, negative = inhibition in test [1] was 6.04%; in test [2], 1.67%; in test [3] it was 10.1%; in test [4], -1.5%; in test [5], 3.58%.

For `CCN1C(=O)c2cc(C(=O)N3CCN(c4ccccc4F)CC3)nn2CC1(C)C(=O)NC1CCCC1` (stereo not given), the activity change, negative = inhibition in test [1] is 3.12%; in test [2], 4.57%; in test [3], -1.23%; in test [4] it was 3.25%; in test [5], 2.73%.

As to `N#Cc1cccc(C#N)c1-c1nc2c3ccccc3c3cc(Cl)ccc3c2[nH]1`, the activity change, negative = inhibition is -19.1% in test [1]; -17.1% in test [2]; -21.2% in test [3]; -42.5% in test [4]; -26.4% in test [5].

With `O=C(O)CC(=O)OC[C@H]1O[C@@H](Oc2ccc3c(c2)OC[C@H]2c4cc5c(cc4O[C@@H]32)OCO5)[C@H](O)[C@@H](O)[C@@H]1O`, the activity change, negative = inhibition was -3.36% in test [1]; -3.4% in test [2]; 4.66% in test [3]; -14.7% in test [4]; -9.78% in test [5].
